# Assay results: the supplement of paper PMC10037445
# Over roughly 2,900 compounds, “IRF Lucia reporter activity, fold change vs agonist alone” has its median near 0.9; the highest 2% begin near 2.8. This is one part of the list.
# Legend:
# RAW-Dual [1] = assay: IRF Lucia reporter activity, fold change vs agonist alone; cytotoxicity flag (confluency mask): not cytotoxic; higher = enhanced IRF activity
# Method in brief: (§1)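 Supernatant from RAW-Dual macrophages was read after 20 hours for IRF by QuantiLuc luminescence and for NF-κB by QuantiBlue absorbance at 620 nm. The cells (50,000 cells/well in DMEM, 384-well plates, 37 °C, 5% CO2) had received 50 nL of library stock by pin tool and, 1 h later, a PRR agonist. Reporter activity is expressed relative to agonist-alone wells as fold change, and wells were flagged cytotoxic if IncuCyte confluency was under 70% of agonist controls in both mask sets.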
# RAW-Dual [2] = assay: IRF Lucia reporter activity, fold change vs agonist alone; higher = enhanced IRF activity; settings: agonist: MPLA (TLR4) […]
# Method in brief: as §1
# RAW-Dual [3] = assay: IRF Lucia reporter activity, fold change vs agonist alone; cytotoxicity flag (confluency mask): cytotoxic (confluency <70% of control); higher = enhanced IRF activity
# Method in brief: as §1
# [4] = agonist: 3'3'-cGAMP (STING) 10 ug/mL
# [5] = library stock concentration (final ~1000-fold dilution): 10 mM, cytotoxicity flag (confluency mask): not cytotoxic
compound,measurement,setting,value
COc1cc2ncnc(Nc3ccc(Cl)cc3F)c2cc1OC (library stock concentration (final ~1000-fold dilution): 10 mM),IRF Lucia reporter activity,RAW-Dual [1]; [4],0.591
same,IRF Lucia reporter activity,RAW-Dual [1]; agonist: LPS (TLR4) 0.1 ug/mL,0.556
CCCC(C)NC(=O)c1ccc(Cl)c(Cl)c1 (centres undefined) (library stock concentration (final ~1000-fold dilution): 10 mM),IRF Lucia reporter activity,RAW-Dual [1]; [4],0.887
same,IRF Lucia reporter activity,RAW-Dual [1]; agonist: LPS (TLR4) 0.1 ug/mL,1.07
CN(C)c1ccc(O)c2c1CC1CC3C(N(C)C)C(O)=C(C(N)=O)C(=O)C3(O)C(O)=C1C2=O.Cl (centres undefined) (library stock concentration (final ~1000-fold dilution): 2 mM water),IRF Lucia reporter activity,RAW-Dual [1]; [4],1.09
same,IRF Lucia reporter activity,RAW-Dual [1]; agonist: LPS (TLR4) 0.1 ug/mL,0.851
CN(C)c1ccc(O)c2c1CC1CC3C(N(C)C)C(O)=C(C(N)=O)C(=O)C3(O)C(O)=C1C2=O.Cl (centres undefined),IRF Lucia reporter activity,"RAW-Dual [2]; library stock concentration (final ~1000-fold dilution): 2 mM water, cytotoxicity flag (confluency mask): not cytotoxic",1.28
COC(=O)c1ccc(O)c(NC(=O)COc2ccc(C34CC5CC(CC(C5)C3)C4)cc2)c1 (library stock concentration (final ~1000-fold dilution): 10 mM),IRF Lucia reporter activity,RAW-Dual [1]; [4],0.925
same,IRF Lucia reporter activity,RAW-Dual [1]; agonist: LPS (TLR4) 0.1 ug/mL,1.14
CN1c2c(nc(N)[nH]c2=O)NC[C@@H]1CNc1ccc(C(=O)N[C@@H](CCC(=O)O)C(=O)O)cc1 (library stock concentration (final ~1000-fold dilution): 10 mM),IRF Lucia reporter activity,RAW-Dual [1]; [4],0.837
same,IRF Lucia reporter activity,RAW-Dual [1]; agonist: LPS (TLR4) 0.1 ug/mL,0.839
CCOc1cn(-c2ccc(F)cc2C)nc1C(=O)Nc1ccc(Oc2ccnc3cc(OC)c(OC)cc23)c(F)c1 (library stock concentration (final ~1000-fold dilution): 10 mM),IRF Lucia reporter activity,RAW-Dual [1]; [4],1.02
same,IRF Lucia reporter activity,RAW-Dual [1]; agonist: LPS (TLR4) 0.1 ug/mL,0.575
COCc1ccc(-c2ccc3ncc(C(N)=O)c(NC(C)C4CCOCC4)c3c2)cn1 (centres undefined) (library stock concentration (final ~1000-fold dilution): 10 mM),IRF Lucia reporter activity,RAW-Dual [1]; [4],0.252
same,IRF Lucia reporter activity,RAW-Dual [1]; agonist: LPS (TLR4) 0.1 ug/mL,0.916
O=c1cc(-c2ccc(O)cc2)oc2c(C3OC(CO)C(O)C(O)C3O)c(O)cc(O)c12 (centres undefined) (library stock concentration (final ~1000-fold dilution): 10 mM),IRF Lucia reporter activity,RAW-Dual [1]; [4],0.992
same,IRF Lucia reporter activity,RAW-Dual [1]; agonist: LPS (TLR4) 0.1 ug/mL,1.08
COc1cc(N2CCN(C)CC2)ccc1Nc1nccc(-c2cn(C)c3cnccc23)n1,IRF Lucia reporter activity,RAW-Dual [2]; [5],0.246
COc1cc(N2CCN(C)CC2)ccc1Nc1nccc(-c2cn(C)c3cnccc23)n1 (library stock concentration (final ~1000-fold dilution): 10 mM),IRF Lucia reporter activity,RAW-Dual [1]; [4],0.0231
same,IRF Lucia reporter activity,RAW-Dual [1]; agonist: LPS (TLR4) 0.1 ug/mL,0.154
COC12C(COC(N)=O)C3=C(C(=O)C(C)=C(N)C3=O)N1CC1NC12 (centres undefined) (library stock concentration (final ~1000-fold dilution): 10 mM),IRF Lucia reporter activity,RAW-Dual [1]; [4],0.783
same,IRF Lucia reporter activity,RAW-Dual [1]; agonist: LPS (TLR4) 0.1 ug/mL,1.35
COC(=O)C1=C(C)NC(C)=C(C(=O)OC)C1c1ccccc1[N+](=O)[O-],IRF Lucia reporter activity,RAW-Dual [2]; [5],0.406
COC(=O)C1=C(C)NC(C)=C(C(=O)OC)C1c1ccccc1[N+](=O)[O-] (library stock concentration (final ~1000-fold dilution): 10 mM),IRF Lucia reporter activity,RAW-Dual [1]; [4],0.606
same,IRF Lucia reporter activity,RAW-Dual [1]; agonist: LPS (TLR4) 0.1 ug/mL,0.554
CN1CCN(CCCN2c3ccccc3Sc3ccc(C(F)(F)F)cc32)CC1.Cl.Cl (library stock concentration (final ~1000-fold dilution): 10 mM),IRF Lucia reporter activity,RAW-Dual [3]; [4],0.788
same,IRF Lucia reporter activity,RAW-Dual [3]; agonist: LPS (TLR4) 0.1 ug/mL,0.737
CN1CCN(CCCN2c3ccccc3Sc3ccc(C(F)(F)F)cc32)CC1.Cl.Cl,IRF Lucia reporter activity,"RAW-Dual [2]; library stock concentration (final ~1000-fold dilution): 10 mM, cytotoxicity flag (confluency mask): cytotoxic (confluency <70% of control)",1.81
O=c1nc(N2CCOCC2)oc2c(-c3cccc4c3sc3ccccc34)cccc12 (library stock concentration (final ~1000-fold dilution): 10 mM),IRF Lucia reporter activity,RAW-Dual [1]; [4],0.298
same,IRF Lucia reporter activity,RAW-Dual [1]; agonist: LPS (TLR4) 0.1 ug/mL,1.03
CN(C)CC(c1ccc(O)cc1)C1(O)CCCCC1.O=C(O)CCC(=O)O (centres undefined),IRF Lucia reporter activity,RAW-Dual [2]; [5],1.02
CN(C)CC(c1ccc(O)cc1)C1(O)CCCCC1.O=C(O)CCC(=O)O (centres undefined) (library stock concentration (final ~1000-fold dilution): 10 mM),IRF Lucia reporter activity,RAW-Dual [1]; [4],1.09
same,IRF Lucia reporter activity,RAW-Dual [1]; agonist: LPS (TLR4) 0.1 ug/mL,0.986
O=C(O)CSc1cc(NS(=O)(=O)c2ccc(Br)cc2)c2ccccc2c1O,IRF Lucia reporter activity,RAW-Dual [2]; [5],1.42
O=C(O)CSc1cc(NS(=O)(=O)c2ccc(Br)cc2)c2ccccc2c1O (library stock concentration (final ~1000-fold dilution): 10 mM),IRF Lucia reporter activity,RAW-Dual [1]; [4],0.391
same,IRF Lucia reporter activity,RAW-Dual [1]; agonist: LPS (TLR4) 0.1 ug/mL,1.26
Cc1cc(C(=O)O)n[nH]1 (library stock concentration (final ~1000-fold dilution): 10 mM),IRF Lucia reporter activity,RAW-Dual [1]; [4],1.03
same,IRF Lucia reporter activity,RAW-Dual [1]; agonist: LPS (TLR4) 0.1 ug/mL,1.25
Cc1cc(C(=O)O)n[nH]1,IRF Lucia reporter activity,RAW-Dual [2]; [5],1.09
C#CC1(O)CCC2C3CCC4=Cc5oncc5CC4(C)C3CCC21C (centres undefined) (library stock concentration (final ~1000-fold dilution): 10 mM),IRF Lucia reporter activity,RAW-Dual [1]; [4],0.976
same,IRF Lucia reporter activity,RAW-Dual [1]; agonist: LPS (TLR4) 0.1 ug/mL,0.805
NCCCCC(NC(CCc1ccccc1)C(=O)O)C(=O)N1CCCC1C(=O)O (centres undefined) (library stock concentration (final ~1000-fold dilution): 10 mM water),IRF Lucia reporter activity,RAW-Dual [1]; [4],1.32
same,IRF Lucia reporter activity,RAW-Dual [1]; agonist: LPS (TLR4) 0.1 ug/mL,0.679
NCCCCC(NC(CCc1ccccc1)C(=O)O)C(=O)N1CCCC1C(=O)O (centres undefined),IRF Lucia reporter activity,"RAW-Dual [2]; library stock concentration (final ~1000-fold dilution): 10 mM water, cytotoxicity flag (confluency mask): not cytotoxic",1.47
